Results taken from PubChem BioAssay AID485344 (National Center for Advancing Translational Sciences (NCATS), 2010).
Hit rate of the full screen: of about 340,000 compounds, about 6,900 (2%) were called active. No stated cut-off is given here; in the data, active means inhibition above about 30%; inactive means below that, where a call was filed. This is a selection; strong and weak results do not stand in their true shares. Where no call is shown, the source filed none.

Target: D(2) dopamine receptor (Homo sapiens) (UniProt P14416)
Sequence of UniProt P14416 (P14416 whole entry, looked up): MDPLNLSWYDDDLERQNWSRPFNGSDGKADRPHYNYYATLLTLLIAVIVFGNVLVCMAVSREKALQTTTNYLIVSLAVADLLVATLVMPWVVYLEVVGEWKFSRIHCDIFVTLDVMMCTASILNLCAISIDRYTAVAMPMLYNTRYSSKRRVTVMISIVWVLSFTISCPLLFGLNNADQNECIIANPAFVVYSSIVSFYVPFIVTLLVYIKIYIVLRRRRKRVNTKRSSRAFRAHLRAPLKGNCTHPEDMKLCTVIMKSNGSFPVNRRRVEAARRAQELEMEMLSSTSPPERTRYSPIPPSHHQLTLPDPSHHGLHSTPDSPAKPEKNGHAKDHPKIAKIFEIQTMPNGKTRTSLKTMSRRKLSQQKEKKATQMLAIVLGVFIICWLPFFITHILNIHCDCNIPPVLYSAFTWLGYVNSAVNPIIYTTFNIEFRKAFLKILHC
Experiment: HTS Assay for Allosteric Antagonists of the Human D2 Dopamine Receptor: Primary Screen for Antagonists; further: 0% is about no effect
Settings: HEK293 TREx D2 cells, calcium flux, dopamine EC80; at 10 µM; stronger effect = higher value
In short: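 Calcium flux kinetic readout in an inducible HEK293 TREx D2 line plated overnight at 30 C. After 180 s compound exposure, an EC80 dopamine challenge follows with another 180 s kinetic read to detect antagonism.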

Row | Compound | inhibition
1 | Cc1cc(C)c(NC(=O)CN2C(=O)c3cccnc3Oc3ccc(C)cc32)c(C)c1 | 13.8%
2 | Cc1cccc(CNc2ccc(C(CC(N)=O)NC(=O)Cc3cccc4ccccc34)cc2[N+](=O)[O-])c1 (stereo not given) | active: 33.8%
3 | Cc1ccc(/C=C/C(=O)Nc2ccc(S(N)(=O)=O)cc2)o1 | 5.45%
4 | O=C(Nc1ccnn1C1CCN(C/C=C/c2ccccc2)CC1)c1ccccc1Cl | active: 79.7%
5 | O=C(NCc1cccnc1)C(=O)NCC(c1cccnc1)N1CCN(c2ccccc2F)CC1 (stereo not given) | 20.2%
6 | O=C(Cn1cc(C(=O)c2ccco2)c2ccccc21)Nc1ccccc1Cl | -0.433%
7 | O=C(C1CCN(S(=O)(=O)c2cccc3nonc23)CC1)N1CCN(c2ccccc2F)CC1 | 3.08%
8 | Cc1cc(C)c2c(=O)cc(C(=O)Nc3ccc(S(=O)(=O)N(C)Cc4ccccc4)cc3)oc2c1 | 4.05%
9 | Cc1nn(-c2ccc(F)cc2)c(-n2cccc2)c1C(=O)NCCCN1CCN(c2cccc(Cl)c2)CC1 | -13.4%
10 | CCOC(=O)c1sc2ccccc2c1S(=O)(=O)N1CCN(c2cccc(OC)c2)CC1 | 0.631%
11 | CCOC(=O)c1sc2ccccc2c1S(=O)(=O)N1CCN(c2cccc(C)c2C)CC1 | -10.5%
12 | Cc1cc(=O)n2nc(N3CCC(C(=O)NCc4ccccc4)CC3)sc2n1 | 7.5%
13 | COCCn1nnnc1SCC(=O)c1ccc(F)cc1 | active: 38.8%
14 | CCc1ccc(S(=O)(=O)Nc2cccc(-c3ccc(N4CCC(C)CC4)nn3)c2)s1 | -19.8%
15 | Cc1cc(NC(=O)NCc2ccc3c(c2)CCN3C(=O)c2ccccc2)ccc1Br | -8.98%
16 | CCOc1ccc(S(=O)(=O)c2cn(Cc3ccccc3)c3ccc(OCC)cc3c2=O)cc1 | 7.93%
17 | CC(C)(C)OC(=O)N1CCC(c2c(C(=O)NCc3ccco3)cnn2-c2ccccc2)CC1 | 6.34%
18 | CCc1ccc(CNC(=O)c2cnc3sc(N4CCCCC4)nn3c2=O)cc1 | 6.16%
19 | O=C(NC1CC2CCC(C1)N2Cc1ccccc1)c1ccccc1Cl (stereo not given) | active: 74.5%
20 | COc1ccc2cc(C(=O)NCc3ccc4c(c3)CCN4C(=O)c3ccccc3)[nH]c2c1 | 10.4%

Row | Compound | inhibition
21 | CCn1c(=O)cc(SCC(=O)NCc2ccccc2OC)c2ccccc21 | 8.13%
22 | Cc1cccc(C(=O)NC(=O)Nc2ccc(-c3cc(C(F)(F)F)nn3-c3ccccc3)cc2)c1 | 1.59%
23 | COc1ccc(C(=O)Nc2ccc(OCc3cc(=O)n4ccsc4n3)cc2)cc1OC | 12.8%
24 | CSc1ncc(Cl)c(C(=O)Nc2ccc(S(=O)(=O)N3CCCC(C)C3)cc2)n1 (stereo not given) | -11.2%
25 | CCc1cccc(NC(=O)C2CCC(CNS(=O)(=O)c3csc(C(N)=O)c3)CC2)c1 (stereo not given) | 9.87%
26 | CCOc1cccc(C2c3[nH]c4ccccc4c3CCN2C(=O)CCC2CCCC2)c1 (stereo not given) | 1.68%
27 | COc1cc(NC(=O)C2CCCN(S(=O)(=O)c3ccc4c(c3)CCCC(=O)N4)C2)cc(OC)c1 (stereo not given) | 11.3%
28 | COc1cc(Cl)c(C)cc1NC(=O)Cn1ncc2c(=O)oc3ccccc3c21 | 24.6%
29 | COc1ccc(-c2nc(SCC(=O)c3ccc(OC)c(Br)c3)n[nH]2)cc1 | 15.8%
30 | CCC(C(=O)OC)n1cnc2c(cnn2-c2ccc(F)cc2)c1=O (stereo not given) | 10.4%
31 | CCCN(CCC)c1nc(-c2ccccc2F)nc2ccccc12 | -3.29%
32 | OC(CN1CCN(c2cccc(Cl)c2)CC1)c1ccccc1 (stereo not given) | active: 52.8%
33 | O=C(CSc1nc2c([nH]c3ccccc32)c(=O)n1-c1ccc(F)cc1)NC1CCCCC1 | -13.6%
34 | CCc1ccccc1NC(=O)CSC1=Nc2ccccc2C2=NC(Cc3ccccc3)C(=O)N12 (stereo not given) | 6.13%
35 | O=C(COc1ccc([N+](=O)[O-])cc1)Nc1cccc2cccnc12 | -4.65%
36 | CCC(C(=O)Nc1cc(OC)c(NC(=O)c2ccccc2)cc1OC)c1ccccc1 (stereo not given) | active: 41.9%
37 | COc1ccc(OCc2ccc(-c3nc(C#N)c(N4CCN(c5cccc(Cl)c5)CC4)o3)o2)cc1 | 3.87%
38 | Cc1nc2sc(C(c3ccccc3)N3CCN(C)CC3)c(O)n2n1 (stereo not given) | active: 46.7%
39 | CCN(CC)C(=O)CSc1nc2cc3c(cc2c(=O)n1CCCCCC(=O)NCCc1ccc(OC)c(OC)c1)OCO3 | -4.13%
40 | COc1ccc(CNC(=O)c2ccc3c(c2)N(Cc2ccccc2F)C(=O)c2ccccc2S3(=O)=O)cc1 | 24.2%

Row | Compound | inhibition
41 | COCCNC(=O)CCc1c(C)nc2c(c(C)nn2-c2ccc(C)cc2)c1C | -3.27%
42 | Cc1cc(F)ccc1NC(=O)CN(C)S(=O)(=O)c1ccc(C(=O)N2CCOCC2)s1 | 0.37%
43 | N#Cc1c(C(F)(F)F)cc(-c2cccs2)nc1SCC(=O)Nc1ccc(F)cc1 | -6.66%
44 | CCOC(=O)N1CCc2c(sc(NCc3ccc(N(C)C)cc3)c2C(=O)Nc2ccc(OC)cc2)C1 | -9.23%
45 | CC1CCc2c(sc(NC(=O)c3ccc(Cl)cc3Cl)c2C#N)C1 (stereo not given) | 17.3%
46 | COc1ccc(CNC(=O)c2cc3cc(S(=O)(=O)N4CCCCC4)ccc3n2C)c(OC)c1 | 7.08%
47 | COc1ccc(NC(=O)CCc2c(C)nc3c(c2C)c(=O)n(C)c(=O)n3C)cc1OC | -9.12%
48 | O=c1c2sc3ccccc3c2n(Cc2cccc(C(F)(F)F)c2)c(=O)n1Cc1ccccc1 | -10.3%
49 | Cc1c(Cl)cccc1N1C(N)=C(C#N)C(c2cc(CN3CCOCC3)cs2)C2=C1CCCC2=O (stereo not given) | -9.99%
50 | COc1ccc(NC(=O)CSc2nc(-c3cccs3)cc(C(F)(F)F)c2C#N)cc1 | -0.99%
51 | Cc1ccc(-n2nc(C)c3c(C(=O)NCc4ccc(F)cc4)cc(C)nc32)cc1 | 0.697%
52 | Cc1cccc(N2CC(C)Cn3c2nc2c3c(=O)n(CC(=O)O)c(=O)n2C)c1 (stereo not given) | -0.121%
53 | OC(CN1CCCCC1)Cn1c2ccccc2c2cc(Br)ccc21 (stereo not given) | active: 79.6%
54 | COc1ccc(CCN2CC(C(=O)NCCc3cccnc3)CCC2=O)cc1 (stereo not given) | active: 31.6%
55 | c1ccc(-c2cnn3c(-c4ccccc4)c(-c4ccccc4)nc3n2)cc1 | active: 39.1%
56 | CSc1ccc(CCNC(=O)c2ccc(CS(=O)(=O)c3ccc(Br)cc3)o2)cc1 | 10.9%
57 | COCCNC(=O)c1cccc(Nc2nc3ccccc3n3nnnc23)c1 | 6.99%
58 | CCc1cccc(NC(=O)CCc2nc3cccnc3n2-c2ccccc2)c1 | -5.83%
59 | CCOc1cc(CNC(=O)c2ccc3c(c2)N(C)C(=O)C2CCCCN32)cc(OCC)c1OCC (stereo not given) | -2.86%
60 | O=C(Nc1ccc(F)cc1F)c1cc2c(=O)n3ccccc3nc2s1 | -1.98%
